Read counts are not given, so values of variants with three or more changes are uncertain.
B1: LINE1-mini (parent)
chain: GGCAGAGCUCAACACAGCGUGGCAAAGUGGCUGUGGCUAGACUGCC

Variants of: B1
Experiment: self-cleavage, relative activity (ratio to wild type); higher = more cleavage; in vitro, sequencing; the parent is a self-cleaving ribozyme

| Variant | self-cleavage |
| --- | --- |
| GGCAAAGCUCAACACAACGUGGCAAAGUGGCUGUCGCUAAAGUGCC [G5A G17A G35C G40A C42G] | 0.04 |
| GGCAGAGCUCAACACAACGUGACAAAGUAGCUGUGGUUAGGCUGCC [G17A G22A G29A C37U A41G] | 0.01 |
| GGCAGAGCUCAACACAGCGUGGCAAAGUGGCUGUGGCCCGCUUGCC [U38C A39C A41C C42U] | 0.05 |
| GGCAGAGCUCAACACAUCGUGGCAAAGUGGCUGAGCCUAGACUGCC [G17U U34A G36C] | 0 |
| GGCAGAGCGCAACACAGCGUGGCAAAGGGGCUGUGGUUAGACCGCC [U9G U28G C37U U43C] | 0.04 |
| GGCAGAGAUAAACACAGCGUGGCAUAGUGGCUGUGGCUAGACUGCC [C8A C10A A25U] | 0.01 |
| GGCAGAUCUCAACAAAGCGUGUCAAAGUGGCUGUGGCUAGGCUGCC [G7U C15A G22U A41G] | 0.36 |
| AGCAGAGCUCAACACAGCCUGGCAAAGUGGCUUUGGCUAGACUGCC [G1A G19C G33U] | 0.13 |
| GGCAGAGUUCAACACAGCGUGGCAACGUAGCUGUGGCUAGAUUGCC [C8U A26C G29A C42U] | 0.05 |
| GGCAGAGCUCAACACAGCUUGGCUAAGUGGCUGUUGCUAGACUGCC [G19U A24U G35U] | 0.08 |
| GGCGGAGCUCAACACAGCGUGGGAAAGUGGCUGUGGCUAGACAGCC [A4G C23G U43A] | 0.45 |
| GUCAGAGCUCAACACGGCGUGGCAAAGUGGCUGGCGCUAGACUGCC [G2U A16G U34G G35C] | 0.05 |
| GGCAGAGCUCAACACAGCGUGGCAAAGUGGAUGUAGCUAGAUUGCC [C31A G35A C42U] | 0.04 |
| GCCAGAGCUCAACACAGCGUUGCAAAGUGGCAAUGGCUAGACUGCC [G2C G21U U32A G33A] | 0.05 |
| GGCAGAGCUCAACACAGCGUGGCAAAGUGGUUGUGACUAGUCUGCC [C31U G36A A41U] | 0.04 |
| GGCAGAGCUCAAAACAACGUGGCAACGUGUCUGUGGCUAGACUGCC [C13A G17A A26C G30U] | 0.12 |
| GGCAGAGCUCAGCACAGCGUGGCAAAGCGGCUGUGGCUAGUCUGCC [A12G U28C A41U] | 0.01 |
| GGCAGACCUCAACACAGCGUGGCAACGUGGCUGUGGCUAGACCGCC [G7C A26C U43C] | 0.08 |
| GACAGAGGUCAACACAGCGUGGCAAAUUGGCUGUGGCUAGACUGCC [G2A C8G G27U] | 0.02 |

| Variant | self-cleavage |
| --- | --- |
| GGAAGUGCUCAACACAGCGUGGCAAAGUGGUUGUGGCUAGACUGCC [C3A A6U C31U] | 0.15 |
| GCCAGAGCUCAUCACAGCGUGGCAAAGUGGCUGUGGCUAGAAUGCC [G2C A12U C42A] | 0.04 |
| GGCAGAGAUCAACACAGAGUGGCAAAGUGGCUGUGACUAGACUGCC [C8A C18A G36A] | 0.29 |
| GGUAGAGCUCAACAUAGCGUGGCAAAGUGGCUGUGCCUAGACUGCA [C3U C15U G36C C46A] | 0.02 |
| GGCAACGCUCGACACAGCGUGGCAAAGUGGCUGUUGCUAGACUGCC [G5A A6C A11G G35U] | 0.04 |
| GUCAGAGCUCAACAGAGCGUGGCAAAGAGGGUCUGGCUAGACUGCC [G2U C15G U28A C31G G33C] | 0.01 |
| GGCAGAGCUUAACAUAGCGUGGCAAAGUGGUUGUGGCUAGAUUGCC [C10U C15U C31U C42U] | 0.11 |
| GCCAGAGCACAACACAGCGUGGCAAAGUGGCUCUGGCUAGACUGCC [G2C U9A G33C] | 0.19 |
| GGCAGCGCUCAACACAGCGUGGCAAAGGGGCCGUGGUUAGACUGCC [A6C U28G U32C C37U] | 0.01 |
| UGCAGAGCUGUCCACAGCGAGGCAGAGUGGCUGUGGCUAGACUGCC [G1U C10G A11U A12C U20A A25G] | 0.01 |
| GGCAGAGCUCAACAGAGCGUGACAAAGUGGCUCUGGCUAGACUGCA [C15G G22A G33C C46A] | 0.15 |
| GACAGAGCUUAACACAGCGGGGCCAAGUGGCUGUGGCUAGAAUGCC [G2A C10U U20G A24C C42A] | 0.06 |
| GUCAGAGCUCAACACAGCGGGGCAAACUGGCUGUGGCUAGACCCUC [G2U U20G G27C U43C G44C C45U] | 0.01 |
| GGCAGAGCUCAAUUCAGCGUGGCAUAGUGGCUGUGGCUAGACGGCC [C13U A14U A25U U43G] | 1.53 |
| GGCUGAGCUCAACACAGCUUUGCAAAUUGGCUGUGGCUAGACUGCC [A4U G19U G21U G27U] | 0.07 |
| GGCAGAGCUCAACACACCGCGGCUAAGUGGCCGUGGUUAGACUGCC [G17C U20C A24U U32C C37U] | 0.04 |
| GGCAGAGCUCAACACCGCGUGGCAAAGUGGCUGUGACUAGACUGGC [A16C G36A C45G] | 0.04 |
| GGCACAGCUCAACACAGCGUGGCAAAGCGGCCGUUGCUAGACUGCC [G5C U28C U32C G35U] | 0.01 |
| GGGAGUGCUCAACCCAGCGUGGCAAAGUAGCUGUGGCUAGACUGCC [C3G A6U A14C G29A] | 0.03 |

| Variant | self-cleavage |
| --- | --- |
| GGCAGAGCACAACACAGCGUGACAAAGUGUCAGUGGAUAGGCUGCC [U9A G22A G30U U32A C37A A41G] | 0.15 |
| GGCAGAGCUCAACACACCGUAGCAAAGUGGCUGUGGCUACACUGCC [G17C G21A G40C] | 0.03 |
| UGCAGAGCUCAACACAGCGUGGCGAAGUGGCCGUCGCUAAACUGCC [G1U A24G U32C G35C G40A] | 0 |
| GGCAGUGCUUAUCACAGCGAGGCAAAGUGGCUGUGGCUAGACUGCC [A6U C10U A12U U20A] | 0.03 |
| GGCAGAGCUCAACAGAGCGUGGUAAAGUGGCUGUGGCUAGUCUGCC [C15G C23U A41U] | 0.01 |
| GGCAGAGCUCAACACAGCGUGGCAAACUGGCUGUGGCAAGACUGCG [G27C U38A C46G] | 0.56 |
| GGCAGAGCUCAACACAGCGUCGCAAAGUGGCUGUGACUAGACAGCC [G21C G36A U43A] | 0.05 |
| GGGAGAGCUCAAGUCAGGCUGGCAAAGUGGCUGUGGCUAGACUGCC [C3G C13G A14U C18G G19C] | 0.68 |
| GGCAGAGCUCAUCACAGCGUGGCAAUGUGGCUGUUGCUAGACUGCC [A12U A26U G35U] | 0.13 |
| GGCGCAGCUCAACACAGCGUGGCAAAGUGACUGUGGCUAAACUGCC [A4G G5C G30A G40A] | 0.04 |
| GGCUGCGCUCAACACAGCGUGGCAAAGUGGCUGUGGCCAGACUGCC [A4U A6C U38C] | 0.02 |
| CGCAGAGCUCAACACAGCGUUGCUAAGUCGCUGUGGCUAGACUGCC [G1C G21U A24U G29C] | 0.06 |
| GGCAGAGCUCAACACAGCGUGGCAAACUGGCCGUGCCUAGACUGCC [G27C U32C G36C] | 0.05 |
| GGCAGAGCUCAACACAGCGUGGCAAAGUGGGUGUCGCUAGACAGCC [C31G G35C U43A] | 0.03 |
| GGCAGAGCUCAACACAGCGUGGCAAAGGGGUUAUGGCUAGACAGCC [U28G C31U G33A U43A] | 0 |
| GGCAGAGCUCAACACAGUGUGGCAAAGUGGCUGGGGCUAGACUGUC [C18U U34G C45U] | 0.05 |
| AGCAGACAUCUACACAGCGUGGCAAAGUGGCUGUGGCUAGACUGCC [G1A G7C C8A A11U] | 0.05 |
| GGAAGGGCUUAACACAGCGUGGCAAAGUGGCUGUGGCUAGAAUGCC [C3A A6G C10U C42A] | 0.05 |
